Experimental data reported in PubChem BioAssay AID588855 (National Center for Advancing Translational Sciences (NCATS), 2011).
Hit rate of the full screen: of about 410,000 compounds, about 5,000 (1.2%) were called active. Inconclusive means that the source gave no clear call. Such entries were picked first, then a sample of the others. Calls come from the whole dose curve; as a rule, active = well fitted inhibition curve with a large enough effect; inconclusive = small, poorly fitted or top-dose-only effect; inactive = no such curve, though single readings can be large or run the other way. Potencies of inconclusive entries are doubtful fits and often do not repeat.

Test: qHTS for Inhibitors of TGF-b; note: nearly all actives have a fitted effect of over 65% in size
Conditions: HepG2 CAGA-GFP TGF-b/SMAD3 reporter, GFP fluorescence, 18 h, TGF-beta stimulated, 500 pg/mL final; series mostly up to 46.1 µM
In short: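 Read-out: total well GFP (ex488/em500-530) summed from mean per-cell fluorescence. Cells: HEPG2 CAGA-GFP, 1% FBS DMEM, 18 h at 37 degrees C with 500 pg/mL final TGF-beta. Unstimulated wells served as the full-inhibition control; stimulated DMSO wells = 0%.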
Potency is the fitted concentration of half-maximal effect; tags give direction and shape of the fitted curve.

| SMILES | Potency |
| --- | --- |
| CC(C)N1C(=O)C(O)(C2COC(C)(C)CC2=O)c2ccccc21 (centres undefined) | inactive |
| COc1cc2c(cc1NC(=O)C(C)NCc1ccccc1)oc1ccccc12 (centres undefined) | inactive |
| Cc1[nH]c2ccc(F)cc2c(=O)c1SC(F)(F)C(F)F | inconclusive: 35.5 µM [inhibitor, single point] |
| COc1cccc(C(=O)c2sc(NC(C)C)nc2N)c1 | inconclusive: 7.08 µM [inhibitor, partial curve, poor fit] |
| CCCC[n+]1c(/C=C/c2ccc(N(C)C)cc2)sc2ccccc21 | inconclusive: 3.16 µM [inhibitor, partial curve, poor fit] |
| CN(C)c1ccc(/C=C/C(=O)c2cccc(Br)c2)cc1 | inactive |
| CCOC(=O)CSc1nc2ccc(NC(=O)c3ccc(F)cc3)cc2s1 | inconclusive: 35.5 µM [inhibitor, single point] |
| CN1CCN(S(=O)(=O)c2cccc(C(=O)N(Cc3nnc(-c4ccc(Cl)cc4)o3)C3CC3)c2)CC1 | inactive |
| Cc1cccc(C(=O)NCC(c2ccc3c(c2)OCO3)N2CCN(c3ccccc3F)CC2)c1 (centres undefined) | inconclusive: 12.6 µM [inhibitor, partial curve, poor fit] |
| COc1cccc(/C(C)=N/NC(=O)c2ccc(N(C)C)cc2)c1 | inactive |
| Cc1ccc(-n2nc(C)c3c(C)cc(=O)n(CC(=O)Nc4ccc(Br)cc4F)c32)cc1 | inactive |
| COC(=O)c1ccc(COc2ccccc2/C=N/NS(=O)(=O)c2ccccc2)cc1 | inconclusive: 3.98 µM [inhibitor, partial curve, poor fit] |
| COc1ccc(-n2c(C)cc(/C=N/Nc3nnc(C)n3N)c2C)cc1 | active: 3.55 µM |
| COc1ccc(OCCN2CCC(C(=O)NC(c3ccc(Cl)cc3)c3ncccc3C)CC2)cc1 (centres undefined) | inconclusive: 31.6 µM [inhibitor, single point] |
| O=C(c1ccc2c(c1)OCO2)C1CCCN(Cc2ccc(OC(F)F)cc2)C1 (centres undefined) | inconclusive: 3.55 µM [inhibitor, full curve] |
| NS(=O)(=O)c1ccc(NC(=O)COC(=O)C2(c3ccc(F)cc3)CCCC2)cc1 | inconclusive: 17.8 µM [inhibitor, single point] |
| CCN(CC)C(=O)c1sc2nc(N3CCOCC3)c3c(c2c1N)CCCC3 | inactive |
| CCn1ncc(C(=O)Nc2cc(C)on2)c1C | inconclusive: 35.5 µM [inhibitor, single point] |
| O=C(OCc1c(-c2ccccc2)ncc2ccccc12)c1ccccc1C(F)(F)F | inconclusive: 35.5 µM [inhibitor, single point] |
| CC1Cc2cc(S(=O)(=O)N3CCC(C(=O)N4CCN(c5ccccc5F)CC4)CC3)ccc2N1C(=O)C1CC1 (centres undefined) | inactive |
| Cc1cc(C)c(OCCCCCn2ccnc2)c(C)c1 | inactive |
| C[C@H]1CN([C@@H](C)CO)C(=O)Cc2cc(NC(=O)C3CC3)ccc2O[C@H]1CN(C)Cc1ccc(Oc2ccccc2)cc1 | inconclusive: 22.4 µM [inhibitor, single point] |
| COc1ccc(C(=O)Nc2ccc(N3CCN(C(=O)C(C)C)CC3)cc2)cc1[N+](=O)[O-] | inactive |

| SMILES | Potency |
| --- | --- |
| O=C(COC(=O)C1CCN(S(=O)(=O)c2ccc3c(c2)OCCO3)CC1)NC1CCCCC1 | inconclusive: 35.5 µM [inhibitor, single point] |
| COC(=O)Cc1ccc(OC(=O)c2cccc(S(=O)(=O)N3CCN(C)CC3)c2)cc1 | inconclusive: 25.1 µM [inhibitor, single point] |
| COc1cc(NC(=O)c2cc(-c3ccco3)on2)cc(OC)c1OC | inactive |
| CS(=O)(=O)c1ccc(NC(=O)C2CCCN(C(=O)c3ccc(Cl)cc3)C2)cc1 (centres undefined) | inactive |
| CCC1=C(Nc2ccccc2)COC1=O | inactive |
| CC1CCCN(S(=O)(=O)c2cc(C(=O)NCCc3ccc(S(N)(=O)=O)cc3)ccc2Cl)C1 (centres undefined) | inconclusive: 6.31 µM [inhibitor, partial curve] |
| Cc1c(Cl)c(C(F)(F)F)nn1CC(=O)NCc1ccccc1 | inconclusive: 1.26 µM [inhibitor, full curve] |
| O=C(c1nnsc1S(=O)(=O)c1ccc(Cl)cc1)N1CCOCC1 | inconclusive: 11.2 µM [inhibitor, partial curve, poor fit] |
| O=c1c(-c2ccc(Br)cc2)[n+]([O-])c2ccccc2n1OCc1ccccn1 | inactive |
| CCOc1ccc2ccccc2c1/C=N/NC(=O)CNC(=O)C(c1ccccc1)c1ccccc1 | inconclusive: 10 µM [inhibitor, partial curve, poor fit] |
| NS(=O)(=O)c1ccc(NC(=S)NC(=O)c2ccc(Br)o2)cc1 | inactive |
| c1ccc(Cc2nnc(SCc3nc(-c4cccs4)no3)n2-c2ccccc2)cc1 | inconclusive: 12.6 µM [inhibitor, partial curve, poor fit] |
| Cc1ccccc1N1CCN(S(=O)(=O)c2nnc(NC(=O)c3ccccc3)s2)CC1 | inconclusive: 28.2 µM [inhibitor, single point] |
| COc1ccc(Cn2nnnc2C(CC(C)C)N2CCN(c3ccccc3)CC2)cc1 (centres undefined) | inactive |
| CC(C)(C)CC(=O)NC(=S)N1CCCCCC1 | inactive |
| COCCCNC(=O)C[C@H]1C[C@H](C(=O)N2CCOCC2)[C@@]2(C)c3[nH]c4cc(-c5ccco5)ccc4c3CCN2C1=O | inactive |
| COc1ccc(CCn2c(=N)c(C(=O)NC3CCCC3)cc3c(=O)n4ccccc4nc32)cc1OC | inactive |
| COc1ccc(-c2onc3ccc(Cl)cc23)cc1 | inactive |
| FC(F)(F)c1ccc(C2[C@H]3CN(Cc4cccnc4)[C@H](c4ccccc4)C34CC2(c2cccnc2)C4)cc1 (some centres undefined) | active: 8.91 µM |
| Cn1cccc1Cc1nnc(SCC(=O)Nc2ccc(F)cc2F)n1-c1ccc(F)cc1 | inactive |
| Cc1ccc(Nc2nnc(-c3ccc(C)c(S(=O)(=O)N4CCN(C)CC4)c3)c3ccccc23)c(C)c1 | inactive |
| O=C(c1cc(C2CC2)on1)N1CCCC(N2CCN(c3cccc(C(F)(F)F)c3)CC2)C1 (centres undefined) | inconclusive: 28.2 µM [inhibitor, single point] |
| CNC[C@@H](CC1CCCCC1)NC[C@H](CC(C)C)NCCc1cccc(C(F)(F)F)c1 | inconclusive: 15.8 µM [inhibitor, single point] |

| SMILES | Potency |
| --- | --- |
| Cc1ccc(C)c(NC(=O)c2ccccn2)c1 | inconclusive: 3.16 µM [inhibitor, single point] |
| Cc1ccc(SC[C@H](Cc2ccccc2)N2CCN(CC(C)C)CCC2=O)cc1 | inconclusive: 10 µM [inhibitor, partial curve] |
| Cc1ccc(SCC(=O)OC(C)C(=O)N2CCc3ccccc32)cc1 (centres undefined) | inconclusive: 5.62 µM [inhibitor, single point] |
| CC1CCOC2(O1)C(=O)Nc1ccccc12 (centres undefined) | inactive |
| Cc1cc(C)c(Cn2c(CCNC(=O)c3ccco3)nc3ccccc32)c(C)c1 | inconclusive: 22.4 µM [inhibitor, single point] |
| CCN(CC)C(=O)c1cccc(-c2csc(C(C)(O)c3ccc(F)c(F)c3)n2)c1 (centres undefined) | inconclusive: 31.6 µM [inhibitor, single point] |
| C[C@@H](NC(=O)c1nc[nH]c1C(=O)N[C@H](C)c1ccccc1)c1ccccc1 | inconclusive: 35.5 µM [inhibitor, single point] |
| O=CNc1cc(-c2ccsc2)cn2c(-c3ccccc3)cnc12 | inconclusive: 17.8 µM [inhibitor, single point] |
| CS(=O)(=O)c1ccccc1C(=O)N1CCN(S(=O)(=O)c2ccc(C3CCCCC3)cc2)CC1 | inconclusive: 35.5 µM [inhibitor, single point] |
| O=C(NCCc1cnc[nH]1)Nc1cccc(C(F)(F)F)c1 | inactive |
| COC(=O)c1cc2oc3ccccc3c2n1Cc1nc(-c2cccc(Cl)c2)oc1C | inactive |
| Cc1ccc(-n2nc3c(N4CCC(C(=O)N5CCC(C)CC5)CC4)nnc(C)c3c2C)cc1 | inconclusive: 11.2 µM [inhibitor, single point] |
| CCn1c(SCC(=O)N/N=C/c2c[nH]c3ccccc23)nnc1-c1ccc(Cl)cc1 | inconclusive: 15.8 µM [inhibitor, single point] |
| O=C(COC(=O)c1cccc(OC(F)F)c1)Nc1ncccn1 | inactive |
| COC(C[C@@H]1O[C@H]1[C@H](O)COCc1ccccc1)OC | inconclusive: 10 µM [inhibitor, partial curve] |
| CCCCC(C(=O)N/N=C/c1ccccn1)C(=O)N/N=C/c1ccccn1 | inconclusive: 35.5 µM [inhibitor, partial curve, poor fit] |
| O=C(/C=C/c1ccccc1Cl)c1cccnc1 | inconclusive: 35.5 µM [inhibitor, single point] |
| COc1cc2c(cc1OC)C(Cc1ccccc1[N+](=O)[O-])=NCC2 | inconclusive: 35.5 µM [inhibitor, single point] |
| COc1cccc(C(=O)N2CCC(CCC(=O)Nc3cccc(C)c3)CC2)c1 | inconclusive: 35.5 µM [inhibitor, single point] |
| CCN(CC)S(=O)(=O)c1cccc(C(=O)NC2CCCCC2)c1 | inconclusive: 35.5 µM [inhibitor, single point] |
| CCCC(c1nnnn1Cc1ccc(OC)cc1)N1CCN(c2ccccc2OC)CC1 (centres undefined) | inconclusive: 12.6 µM [inhibitor, partial curve, poor fit] |
| CC(C)C[C@@H](COc1ccccc1)N1CCN(Cc2ccccc2)CCC1=O | inconclusive: 14.1 µM [inhibitor, single point] |
| CC(=O)Nc1ccc(-c2ccnc3c2CC(C)(C(=O)NCc2ccc(N(C)C)cc2)O3)cc1 (centres undefined) | inactive |
